{"source": "patent US20200247897A1", "about": "(Genmab, published 2020)", "target": "T1, cynomolgus monkey DR5 protein with deletion of amino acids 185-213 and death domain loss-of-function mutation … (cynomolgus monkey (Macaca fascicularis))", "T1 construct": "also called Cyno DR5Mfdel-K420N", "T1 chain": "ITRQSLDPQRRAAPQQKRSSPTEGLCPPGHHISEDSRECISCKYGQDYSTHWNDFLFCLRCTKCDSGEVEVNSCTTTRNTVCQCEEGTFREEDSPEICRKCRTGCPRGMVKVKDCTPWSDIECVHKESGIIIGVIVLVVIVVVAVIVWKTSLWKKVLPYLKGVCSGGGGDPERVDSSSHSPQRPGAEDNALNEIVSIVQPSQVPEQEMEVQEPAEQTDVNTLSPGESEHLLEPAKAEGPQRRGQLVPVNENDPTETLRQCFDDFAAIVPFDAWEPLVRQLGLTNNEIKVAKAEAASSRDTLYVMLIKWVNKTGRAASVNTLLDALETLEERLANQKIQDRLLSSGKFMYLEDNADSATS", "experiment": "flow cytometry on cynomolgus DR5-transfected CHO cells; four experiments"}
{"binder": "IgG1-hDR5-01-G56T-E430G (antibody) heavy: EVQLQQSGAEVVKPGASVKLSCKASGFNIKDTFIHWVKQAPGQGLEWIGRIDPANTNTKYDPKFQGKATITTDTSSNTAYMELSSLRSEDTAVYYCVRGLYTYYFDYWGQGTLVTVSSASTKGPSVFPLAPSSKSTSGGTAALGCLVKDYFPEPVTVSWNSGALTSGVHTFPAVLQSSGLYSLSSVVTVPSSSLGTQTYICNVNHKPSNTKVDKRV[human IgG1 Fc with E430G (EU numbers) omitted] light: EIVMTQSPATLSVSPGERATLSCRASQSISNNLHWYQQKPGQAPRLLIKFASQSITGIPARFSGSGSGTEFTLTISSLQSEDFAVYYCQQGNSWPYTFGQGTKLEIKRTVAAPSVFIFPPSDEQLKSGTASVVCLLNNFYPREAKVQWKVDNALQSGNSQESVTEQDSKDSTYSLSSTLTLSKADYEKHKVYACEVTHQGLSSPVTKSFNRGEC", "values": [{"measurement": "EC50", "value": 0.27, "unit": "µg/mL"}]}
